Laboratory results published in article PMC12136788.
The other results are listed elsewhere or left out.

B1: 53051169_53051289_108_3pUTR_ENSMUSG00000026960_ENSMUST00000028336|mouse|control|control (ssRNA)
RNA: GGGAGUUCUACAGUCCGACGAUCCUUCGUCGCCUUCGCCCUCACCCCAGCUGUCCCCCUGAGUGUAGUCGGAAUACCCGGGCCGAGUCGCAGGGCCUGGGGUAACCUGACGGCGCCUCCGCGCGCCCGCAAACCUCCAACUCUCAACAGAGGAUUGAGCAUCA
B2: chrX:140365796:140365797:-_ENSMUSG00000031285_ENSMUST00000033642|mus_mus|mus_mus_mus_hu_False|1_8 (ssRNA)
RNA: GGGAGUUCUACAGUCCGACGAUCCUUCUCAUUACUCAGUGCCUGCAAGGUUCUGGUUCGGUAGAAGCUACAGUGGGCGCUGUGAGUGGGGCUAGGCAACCCAUUCAUCCGGGAGCCUCGCAUGUUCCUAGAUGCUUUGUCUCGCAACAGAGGAUUGAGCAUCA
B3: chr6:42975684:42975685:+_ENSG00000112640_ENST00000485511|hu_hu|FALSE|FALSE (ssRNA)
RNA: GGGAGUUCUACAGUCCGACGAUCACUGUCAAAUAGGUCUAGGAGAGCAAGUACAAACUUCUGGUCGAUGUACUUCUUGGCUAUGUUUGGCUGGAAAUCAGGAGACUCAAGGAAACGUAAGAAGAACUCAUACACGAGCUGGAGCAACAGAGGAUUGAGCAUCA
B4: chr2:148693158:148693159:-_ENSG00000115947_ENST00000542387|hu_hu|FALSE|FALSE (ssRNA)
RNA: GGGAGUUCUACAGUCCGACGAUCUGCCCACUGCCUCACAUCUGUAGGACAGUUGGGAUAUUUCUGCAGAGCAUUCAUAAUUUGAGUAUUAUCCAAAAGCAGUUUCAUCAGCUGGUACUCUCUCUGUGAAUUUCCUGAAGUUCUCAACAGAGGAUUGAGCAUCA
B5: chr7:7679991:7679992:-_ENSG00000106399_ENST00000396682|hu_hu|hu_hu_hu_mus_False|1_98 (ssRNA)
RNA: GGGAGUUCUACAGUCCGACGAUCUGGGAUGAAUCUUUUCCAGCCUCCCCACGAAGCACACGGGCCGGUCGAUAUACUGUGGUAACAUGCUGGCGUUGACGCGCGCUUUGGGGAGCUGCAUUAUGUCCUCCAUGAUUAUGGUCCCAACAGAGGAUUGAGCAUCA
B6: chr18:60570258:60570259:+_ENSG00000081913_ENST00000262719|hu_hu|motif|central (ssRNA)
RNA: GGGAGUUCUACAGUCCGACGAUCCUUAUUGUCUCGUAGGUCAAGCUGAGUAACAUGCUGUAGAAAGUCCACUUCAUCUGCGGUCAGCUUCCUAAUUACGUUCAACCUUAGAUCCACAUGUUUAAUGUGAGGCAUUUUUCUUAACAACAGAGGAUUGAGCAUCA
B7: chr3:10015032:10015033:+_ENSMUSG00000027533_ENSMUST00000029046|mus_mus|mus_mus_mus_hu_True|18_18 (ssRNA)
RNA: GGGAGUUCUACAGUCCGACGAUCGUUUUUACCAUCACAAGUGAUGAUACAAUCUGGCUUGGCCAUUGCGCCCAUUUUUCGCAAAGCUAUUCCCACUCCUAGCUCCUUCAUGUAUUCCUCAAAGCCGUUGCUGUCCACCAGGCGCAACAGAGGAUUGAGCAUCA
B8: chr12:42180722:42180723:-_ENSMUSG00000036295_ENSMUST00000043884|mus_mus|FALSE|FALSE (ssRNA)
RNA: GGGAGUUCUACAGUCCGACGAUCCUGUAGGAGCAGAAUCUGUGUGUCGGCAGGCAAUCUGGCUGGGAAGUUUAAAAGCCCUAAAUCAUUACAGUCCACUGUCGAUGCUUCCAUAUAGAUGGAUCUCGGGGUAAACCAAGGCCUCAACAGAGGAUUGAGCAUCA
B9: chr1:173932209:173932210:-_ENSMUSG00000026556_ENSMUST00000027837|mus_mus|FALSE|FALSE (ssRNA)
RNA: GGGAGUUCUACAGUCCGACGAUCACAACUUCCCAUUCUGGAGAAGCAAAAGACACACACACACACACACACACACACACACACACACACACACACACCUCGCACACACAGAGCCAUACAUUUGACAAUUCAUCCUGACAUCUUCAACAGAGGAUUGAGCAUCA
B10: chr8:95500983:95500984:-_ENSG00000164944_ENST00000437199|hu_hu|hu_hu_hu_mus_True|38_78 (ssRNA)
RNA: GGGAGUUCUACAGUCCGACGAUCAGAACACAUCUAUCGAGUAAAGGACCGUACAUGGACGACCUCUCCACUGCCUCCACUAACAAACUUUCCUCUCUGAGCCUCCAUGCCGCUAUUUGUACUAGCCCAGGACGGUCCCAGGCCCAACAGAGGAUUGAGCAUCA
B11: chr4:124323543:124323544:+_ENSG00000164056_ENST00000339241|hu_hu|FALSE|FALSE (ssRNA)
RNA: GGGAGUUCUACAGUCCGACGAUCCCUCCUGCACAGCUUCAGGCAUCCUUUAGCAGGAGGAUAACAGAGUAAGCAAGGUAAAAAUAAAGACAUGGCUCCCAUACACAGGUAUCUAGAGCAGCAGUGUGAUUGUGAACAGGAGCACAACAGAGGAUUGAGCAUCA
B12: chr15:85259290:85259291:-_ENSG00000140612_ENST00000559729|hu_hu|FALSE|FALSE (ssRNA)
RNA: GGGAGUUCUACAGUCCGACGAUCAUUUAGGACUUGAUAAUAGAGCUGCCGCUUGUUCAUCCGCCGCACAUCGUCCAAAAAGUCUAGAGACAGCAUGGCGGGGACGGCGAGCAGGACACCGGCAGGGGAAAGGGCGCGAUGACCCAACAGAGGAUUGAGCAUCA
B13: chr12:48459454:48459455:-_ENSG00000079387_ENST00000551330|hu_hu|FALSE|FALSE (ssRNA)
RNA: GGGAGUUCUACAGUCCGACGAUCUGCCUUCUGUUCUUCAAUCUGGCGCAAUCUUUCUCGUGCUCGAGAAUCAUAAACACUAGUUAAUUCUUUGAUCCACAGCUCUGCCUGGAAGAAAGUAGAACUGGGAGUUGGAGUCUGGGACAACAGAGGAUUGAGCAUCA
B14: chr2:150438701:150438702:-_ENSG00000168288_ENST00000303319|hu_hu|motif|central (ssRNA)
RNA: GGGAGUUCUACAGUCCGACGAUCAUCCGAACCUGAUGAUCCUGCAGUCGAAAAGGCUUUGGGAUUGACAACCCUUUUAACGGAAGAGCAAAAUCCUGGGAGAUAGGAAACCAGUCUGGCUCUGUUACAAAGCACAUUGGCCAUCAACAGAGGAUUGAGCAUCA

biological target: T1, UNK ZnF1-3 (human, UniProt Q9C0B0 31-174); experiment: nsRBNS (natural sequence RNA bind-n-seq); RBNS binding buffer (assumed for nsRBNS): 25 mM Tris pH 7.5, 150 mM KCl, 3 mM MgCl2, 0.01% Triton X-100, 500 ug/ml BSA, 20 U/ml SUPERase-In, 4 C; UNK is unkempt and MSI1 is Musashi-1; names of the RNAs are library labels; protein concentration not given here; high values mean tight binding
T1 sequence: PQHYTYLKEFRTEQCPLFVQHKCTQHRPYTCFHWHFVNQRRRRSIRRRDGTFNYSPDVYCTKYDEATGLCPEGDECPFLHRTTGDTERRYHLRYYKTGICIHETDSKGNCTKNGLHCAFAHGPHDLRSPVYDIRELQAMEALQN

Binder	binding signal [enrichment R]
B1	0.825
B2	0.461
B3	1.79
B4	0.902
B5	0.525
B6	0.864
B7	0.718
B8	1.2
B9	1.68
B10	1.35
B11	1.89
B12	0.749
B13	0.775
B14	1.1
